The supplement of paper PMC9446081
About 220 (0.56%) of roughly 39,000 compounds showed activity. Some of the results follow.

tested on: Escherichia coli K-12 BW25113; test: relative growth (OD600 normalised to plate interquartile mean) (fraction); higher = less growth inhibition, active = 0.2 or less; settings: 50 µM; LB; incubation time: overnight (16-24 h)
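Also: static incubation at 37 °C against the wild-type strain, values averaged over two biological replicates.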

Compound | relative growth
CCCOc1ccc(S(=O)(=O)NCC[C@@H]2CCCN2C)cc1-c1nc2c(CCC)nn(C)c2c(=O)[nH]1 | inactive: 0.987
C[C@H](CO)N1C[C@H](C)[C@@H](CN(C)C(=O)Nc2ccc(F)cc2)OCCCC[C@H](C)Oc2ccc(NS(=O)(=O)c3ccccc3)cc2C1=O | inactive: 1.01
C[C@H](CO)N1C[C@H](C)[C@@H](CN(C)S(=O)(=O)c2cccs2)Oc2c(NS(=O)(=O)c3cn(C)cn3)cccc2C1=O | inactive: 1.02
COCCNC(=O)C[C@H]1C[C@H]2c3cc(NC(=O)Nc4ccc(C(F)(F)F)cc4)ccc3O[C@H]2[C@H](CO)O1 | inactive: 0.971
CN(C)CCCNC(=O)[C@@H]1[C@@H](CO)[C@@H]2Cn3c(ccc(-c4cccc(C(=O)N(C)C)c4)c3=O)[C@H]1N2 | inactive: 0.953
O=C(C[C@H]1CC[C@@H]2NC[C@@H](O)COC[C@H]2O1)NCCN1CCCCC1 | inactive: 0.992
COc1ccc(NC(=O)N(C)C[C@H]2OCc3ccccc3-c3c(n(C)c4ccccc34)C(=O)N([C@@H](C)CO)C[C@@H]2C)c(OC)c1 | inactive: 0.982
C[C@H](CO)N1C[C@H](C)[C@@H](CN(C)C(=O)Nc2cccc(Oc3ccccn3)c2)OCc2cn(nn2)CCCC1=O | inactive: 1.04
C[C@@H]1CN([C@H](C)CO)C(=O)c2cccc(NC(=O)C3CC3)c2O[C@H]1CN(C)C(=O)Nc1ccc2c(c1)OCO2 | inactive: 1
COc1ccccc1CN1C(=O)c2ccccc2[C@@]2(Cc3ccccc3N(C3CC3)C2=O)[C@@H]1c1ccc(CO)cc1 | inactive: 1.01
C[C@H]1CCCCO[C@@H](CN(C)Cc2ccncc2)[C@@H](C)CN([C@@H](C)CO)C(=O)c2cc(NS(=O)(=O)c3ccc(Cl)cc3)ccc2O1 | inactive: 1
COc1ccc(C#Cc2ccc3c(c2)[C@]2(C(=O)N3)[C@H](c3ccc(O)cc3)N3[C@H](c4ccccc4)[C@H](c4ccccc4)OC(=O)[C@H]3[C@@H]2C(=O)N2CCCCCCC2)cc1 | inactive: 1.02
COc1cc(C=O)ccc1O | inactive: 0.982
C[C@H]1CCCCO[C@@H](CN(C)C(=O)Nc2ccc(C(F)(F)F)cc2)[C@@H](C)CN([C@@H](C)CO)C(=O)c2cc(NC(=O)Cc3ccccc3)ccc2O1 | inactive: 1.04
C[C@H](CO)N1C[C@H](C)[C@@H](CN(C)Cc2ccc(C(=O)Nc3ccccc3N)cc2)Oc2ccc(NC(=O)Cc3cn(C)c4ccccc34)cc2C1=O | inactive: 0.982
CCCCCC/C=C/C=C\CCCCCCCC(=O)O | inactive: 1.02
Cc1cc(C)c(N(Cc2ccccc2)S(=O)(=O)c2ccc(OCCNC(=O)c3cc4ccccc4o3)cc2)c(C(=O)NO)c1 | inactive: 0.998
CN(C)CC(=O)N1[C@@H]2Cn3c(ccc(-c4ccccc4)c3=O)[C@H]1[C@@H](C(=O)N1CCN(C)CC1)[C@@H]2CO | inactive: 0.984
C[C@H]1CCCCO[C@H](CN(C)S(=O)(=O)c2ccccc2)[C@@H](C)CN([C@@H](C)CO)C(=O)c2cc(NC(=O)Nc3ccccc3)ccc2O1 | inactive: 1.02
Cc1ccc2nc3c(cc(C(=O)NCCN4CCOCC4)c(=N)n3C[C@H]3CCCO3)c(=O)n2c1 | inactive: 1.01

Compound | relative growth
CCCNC(=O)N1C[C@@H](C)[C@H](OC)CN(C)C(=O)c2ccc(NS(=O)(=O)CC(F)(F)F)cc2OC[C@@H]1C | inactive: 0.976
COc1ccc2cccc(CCNC(C)=O)c2c1 | inactive: 1.08
CN(C)CCCCSC(=N)N | inactive: 1
C[C@H](CO)N1C[C@H](C)[C@H](CN(C)S(=O)(=O)c2ccccc2)OCCCC[C@H](C)Oc2ccc(NC(=O)Nc3ccc4c(c3)OCO4)cc2C1=O | inactive: 1.01
CC(C)[C@@H](CC[C@@H](C)[C@H]1CC[C@H]2[C@@H]3[C@H](O)C[C@H]4C[C@@H](NCCCNCCCCNCCCN)CC[C@]4(C)[C@H]3CC[C@]12C)OS(=O)(=O)O | active: 0.152
C[C@@H]1CN([C@H](C)CO)C(=O)Cc2cc(NS(=O)(=O)c3ccc(F)cc3)ccc2O[C@H]1CN(C)Cc1ccc(Cl)c(Cl)c1 | inactive: 1.01
C[C@H]1CN([C@@H](C)CO)C(=O)c2cc(NS(C)(=O)=O)ccc2O[C@@H]1CN(C)C(=O)Nc1ccc(C(F)(F)F)cc1 | inactive: 0.954
Cc1ccc(S(=O)(=O)Nc2ccc3c(c2)CC(=O)N([C@@H](C)CO)C[C@@H](C)[C@@H](CN(C)Cc2ccc(Cl)c(Cl)c2)O3)cc1 | inactive: 0.987
CCN(CC)CCNC(=O)C(=O)NC1CC1 | inactive: 1.02
CO[C@H]1CN(C)C(=O)c2cc(NC(=O)c3ccc(F)cc3)ccc2OC[C@H](C)N(C(=O)CN(C)C)C[C@H]1C | inactive: 1.01
C[C@@H]1CCCCO[C@H](CN(C)S(=O)(=O)c2ccc(F)cc2)[C@H](C)CN([C@@H](C)CO)C(=O)c2cc(NS(C)(=O)=O)ccc2O1 | inactive: 1.01
C=C1CC[C@H]2[C@H](CN)[C@@H]([C@@]3(C)CC[C@H](O)C[C@@H]3CO)CC[C@]12C | inactive: 1
C[C@H](CO)N1C[C@H](C)[C@@H](CN(C)C)Oc2cc(C#CCN(C)C)ccc2S1(=O)=O | inactive: 0.994
C[C@@H]1CN([C@H](C)CO)C(=O)c2cccc(NC(=O)c3ccc(-c4nccs4)cc3)c2O[C@@H]1CN(C)C(=O)Nc1ccc2c(c1)OCO2 | inactive: 0.98
Cc1cccc(S(=O)(=O)N2C[C@H](O)COC[C@H]3O[C@@H](CC(=O)N4CCN(C)CC4)CC[C@@H]32)c1 | inactive: 0.999
C[C@H]1CN([C@@H](C)CO)C(=O)Cc2cc(NC(=O)CCN3CCOCC3)ccc2O[C@H]1CN(C)Cc1ccc(C(=O)Nc2ccccc2N)cc1 | inactive: 1.03
CC1(C)CC(=O)C(=CNC(CO)(CO)CO)C(=O)C1 | inactive: 0.994
C[C@H](CO)N1C[C@H](C)[C@H](CN(C)Cc2ccc(C(=O)O)cc2)Oc2ccc(NS(C)(=O)=O)cc2C1=O | inactive: 0.986
CC(C)NC(=O)Nc1ccc2c(c1)C(=O)N([C@H](C)CO)C[C@H](C)[C@H](CN(C)Cc1ccccc1)OCCCC[C@H](C)O2 | inactive: 1.01
